Patent US20260265384A1 (JOINT STOCK COMPANY BIOCAD, published 2026)

T1: mouse (Mus musculus) AXL (mouse (Mus musculus), UniProt Q00993 19-443, limits assumed)
T1 sequence (looked up): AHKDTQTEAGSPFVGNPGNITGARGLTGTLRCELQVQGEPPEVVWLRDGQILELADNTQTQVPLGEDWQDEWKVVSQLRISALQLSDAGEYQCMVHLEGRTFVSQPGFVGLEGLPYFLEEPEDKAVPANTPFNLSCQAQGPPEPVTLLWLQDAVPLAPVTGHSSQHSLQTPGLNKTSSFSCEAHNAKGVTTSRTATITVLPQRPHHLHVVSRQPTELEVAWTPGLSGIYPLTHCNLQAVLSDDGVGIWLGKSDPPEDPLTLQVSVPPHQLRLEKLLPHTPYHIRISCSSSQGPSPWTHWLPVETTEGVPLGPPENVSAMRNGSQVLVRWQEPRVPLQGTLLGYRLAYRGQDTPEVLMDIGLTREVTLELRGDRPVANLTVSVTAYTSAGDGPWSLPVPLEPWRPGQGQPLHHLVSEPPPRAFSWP

T2: cynomolgus (Macaca fascicularis) AXL (cynomolgus (Macaca fascicularis), UniProt A0A2K5WXE0 26-451)
T2 construct: also called monkey AXL antigen
T2 sequence: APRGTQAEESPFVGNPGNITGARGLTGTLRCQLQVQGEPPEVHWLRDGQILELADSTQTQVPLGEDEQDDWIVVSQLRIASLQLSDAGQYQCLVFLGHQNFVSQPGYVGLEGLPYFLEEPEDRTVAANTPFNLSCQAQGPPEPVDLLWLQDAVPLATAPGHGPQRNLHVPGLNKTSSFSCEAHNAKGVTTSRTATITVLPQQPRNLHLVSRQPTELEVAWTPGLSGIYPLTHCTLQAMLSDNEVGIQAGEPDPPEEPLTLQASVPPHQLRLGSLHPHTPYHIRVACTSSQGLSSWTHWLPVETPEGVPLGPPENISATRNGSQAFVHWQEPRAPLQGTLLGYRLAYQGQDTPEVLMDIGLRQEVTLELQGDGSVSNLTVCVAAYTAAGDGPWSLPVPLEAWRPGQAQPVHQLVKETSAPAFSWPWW

T3: Human AXL (human, UniProt P30530 26-449, limits assumed)
T3 construct: also called human AXL antigen
T3 sequence (looked up): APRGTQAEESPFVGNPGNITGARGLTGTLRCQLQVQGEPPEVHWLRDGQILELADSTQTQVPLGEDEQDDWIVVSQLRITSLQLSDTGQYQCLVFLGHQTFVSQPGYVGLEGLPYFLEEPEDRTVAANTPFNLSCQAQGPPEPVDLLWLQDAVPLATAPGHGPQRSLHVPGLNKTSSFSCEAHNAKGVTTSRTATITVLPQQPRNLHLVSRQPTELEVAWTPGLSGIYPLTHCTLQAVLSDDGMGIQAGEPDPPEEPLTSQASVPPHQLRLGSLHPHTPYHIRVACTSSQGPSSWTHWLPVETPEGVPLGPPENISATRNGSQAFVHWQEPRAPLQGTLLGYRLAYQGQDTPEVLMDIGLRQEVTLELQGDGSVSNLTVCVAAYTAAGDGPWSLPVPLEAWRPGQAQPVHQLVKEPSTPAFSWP

T4: AXL-Ig1, human AXL extracellular domain Ig-like C2-type 1 fused by a linker to IgG1 Fc (human)
T4 chain: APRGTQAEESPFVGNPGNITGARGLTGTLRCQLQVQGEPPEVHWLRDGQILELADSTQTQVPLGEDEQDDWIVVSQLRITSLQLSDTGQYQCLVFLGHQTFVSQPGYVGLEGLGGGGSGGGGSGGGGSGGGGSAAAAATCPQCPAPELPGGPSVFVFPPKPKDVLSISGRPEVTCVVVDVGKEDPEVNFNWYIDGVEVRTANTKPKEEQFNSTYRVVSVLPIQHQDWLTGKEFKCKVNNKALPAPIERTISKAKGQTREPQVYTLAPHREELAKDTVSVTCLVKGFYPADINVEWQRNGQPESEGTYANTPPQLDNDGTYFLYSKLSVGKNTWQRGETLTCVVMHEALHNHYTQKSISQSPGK

T5: AXL-Ig2, human AXL extracellular domain Ig-like C2-type 2 fused by a linker to IgG1 Fc (human)
T5 chain: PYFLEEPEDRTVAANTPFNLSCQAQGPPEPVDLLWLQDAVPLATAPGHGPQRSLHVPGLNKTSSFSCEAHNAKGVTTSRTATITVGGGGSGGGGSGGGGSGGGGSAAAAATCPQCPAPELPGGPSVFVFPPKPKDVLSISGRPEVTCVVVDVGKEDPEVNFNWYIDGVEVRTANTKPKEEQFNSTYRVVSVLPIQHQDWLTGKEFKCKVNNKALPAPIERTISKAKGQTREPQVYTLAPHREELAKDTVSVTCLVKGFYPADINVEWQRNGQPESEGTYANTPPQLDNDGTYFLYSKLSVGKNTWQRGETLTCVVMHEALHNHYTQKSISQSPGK

T6: AXL-Ig1-Ig2, human AXL extracellular domains Ig-like C2-type 1 and 2 fused by a linker to IgG1 Fc (human)
T6 chain: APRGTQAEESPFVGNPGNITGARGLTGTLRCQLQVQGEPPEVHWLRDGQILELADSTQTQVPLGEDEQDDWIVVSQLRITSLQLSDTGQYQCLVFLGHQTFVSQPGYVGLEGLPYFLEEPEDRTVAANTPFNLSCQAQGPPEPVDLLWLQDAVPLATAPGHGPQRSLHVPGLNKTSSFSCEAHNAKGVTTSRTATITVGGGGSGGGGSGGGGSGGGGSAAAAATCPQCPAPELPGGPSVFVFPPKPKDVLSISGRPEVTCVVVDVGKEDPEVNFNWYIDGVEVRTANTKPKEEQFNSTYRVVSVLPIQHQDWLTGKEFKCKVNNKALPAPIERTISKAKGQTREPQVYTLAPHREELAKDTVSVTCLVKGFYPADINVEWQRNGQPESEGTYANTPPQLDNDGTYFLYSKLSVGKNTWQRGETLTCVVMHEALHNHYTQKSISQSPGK

T7: cynoAXL, Cynomolgus AXL receptor fragment comprising all extracellular domains, fused by a linker to His6- … (Cynomolgus macaque (Macaca fascicularis))
T7 chain: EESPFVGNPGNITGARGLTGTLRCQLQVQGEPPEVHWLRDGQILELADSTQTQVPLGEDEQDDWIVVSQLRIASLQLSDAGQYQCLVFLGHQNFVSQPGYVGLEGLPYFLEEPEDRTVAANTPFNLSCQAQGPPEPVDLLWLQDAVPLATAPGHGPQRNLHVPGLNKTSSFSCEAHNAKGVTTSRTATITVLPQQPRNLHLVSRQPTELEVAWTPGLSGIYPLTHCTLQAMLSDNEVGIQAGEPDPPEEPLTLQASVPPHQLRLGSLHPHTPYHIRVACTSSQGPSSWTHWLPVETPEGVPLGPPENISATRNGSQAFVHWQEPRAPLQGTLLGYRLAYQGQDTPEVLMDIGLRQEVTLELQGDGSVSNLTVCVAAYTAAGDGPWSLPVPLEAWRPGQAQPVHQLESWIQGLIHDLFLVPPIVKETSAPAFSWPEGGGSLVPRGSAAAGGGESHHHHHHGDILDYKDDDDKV


Columns and labels:
[1] = molecular target: T1, mouse (Mus musculus) AXL; assay: SPR, Biacore 8K, antigen immobilised on CM5 chip, antibody in solution
Procedure: (§1) Constants of binding of antibody 01_004 to various antigens were determined by SPR (surface plasmon resonance) using Biacore 8K (Cytiva). The test antigen was immobilized on Sensor Chip CM5 (Cytiva), followed by analysis of binding thereof to anti-AXL antibody 01_004 in PBS 0.02% Tween-20 pH 7.4. Measurement data was processed using the Biacore Insight Evaluation (Cytiva) software.

[2] = molecular target: T2, cynomolgus (Macaca fascicularis) AXL; assay: SPR, Biacore 8K, antigen immobilised on CM5 chip, antibody in solution; mean value
Procedure: as §1

[3] = molecular target: rabbit (Oryctolagus cuniculus) AXL (rabbit (Oryctolagus cuniculus)); assay: as above
Procedure: as §1

[4] = molecular target: T3, Human AXL; assay: as above
Procedure: as §1

[5] = molecular target: T4, AXL-Ig1, human AXL extracellular domain …; assay: ELISA, antigen coated at 1 µg/ml, antibody at 1 µg/ml, anti-human Fab-HRP detection, OD 450 nm with 540 nm correction
Procedure: (§2) Antigens (ExcAXL, AXL-Ig1, AXL-Ig2, AXL-Ig1-Ig2) were immobilized in wells of a high-absorption 96-well plate. To this end, to the wells of the plate was introduced 100 μl of antigen solution at a concentration of 1 μg/ml in PBS, the plate was incubated for 16 hours at room temperature.
(§3) Next, the liquid was removed from the wells, the wells were washed with 300 μl of washing buffer solution (1×PBS pH 7.3-7.5, 0.05% Tween-20) and 300 μl/well of blocking buffer solution was added (1×PBS with 1% BSA). The plate was incubated for 1 hour at room temperature. Liquid was removed again and the plate was washed. Then, to the wells of the plate were introduced 100 μl of test antibodies at a concentration of 1 μg/ml in a dilution buffer (1×PBS with 0.1% BSA, 0.05% Tween-20). Next, the plate was incubated with antibodies on a thermal shaker for 1 hour at 37° C., 600 rpm. After incubation, liquid was removed, the plate was washed and 100 μl of anti-human Fab-HRP antibodies in a dilution buffer were added. After incubation on a thermal shaker at 37° C. and 600 rpm, the plate was washed for an hour and 100 μl of reaction substrate (0.083 mg/ml TMB, 0.02% H₂O₂) in an acetate buffer solution (0.05M, pH 5.5) was added. The plate was incubated at room temperature for 10-15 minutes. The reaction was stopped by adding 50 μl of 10% H₂SO₄ to each well of the plate. Optical density values were measured at a wavelength of 450 using 540 nm wavelength correction by means of a plate reader.

[6] = molecular target: T5, AXL-Ig2, human AXL extracellular domain …; assay: as above
Procedure: as §2, §3

[7] = molecular target: T6, AXL-Ig1-Ig2, human AXL extracellular …; assay: as above
Procedure: as §2, §3

[8] = molecular target: T7, cynoAXL, Cynomolgus AXL receptor …; assay: ELISA, antigen coated at 1 µg/ml, antibody titrated, anti-human Fab-HRP detection, OD 450 nm with 540 nm correction
Procedure: (§4) Next, the liquid was removed from the wells, the wells were washed with 300 μl of washing buffer solution (1×PBS pH 7.3-7.5, 0.05% Tween-20) and 300 μl/well of blocking buffer solution was added (1×PBS with 1% BSA). The plate was incubated for 1 hour at room temperature. Liquid was removed again and the plate was washed. Next, to wells of the plate was added 100 μl of antibody 01_004_2, at a concentration as shown in the graph, in dilution buffer (1×PBS with 0.1% BSA, 0.05% Tween-20). Next, the plate was incubated with antibodies on a thermal shaker for 1 hour at 37° C., 600 rpm. After incubation, liquid was removed, the plate was washed and 100 μl of anti-human Fab-HRP antibodies in a dilution buffer were added. After incubation on a thermal shaker at 37° C. and 600 rpm, the plate was washed for an hour and 100 μl of reaction substrate (0.083 mg/ml TMB, 0.02% H₂O₂) in an acetate buffer solution (0.05M, pH 5.5) was added. The plate was incubated at room temperature for 10-15 minutes. The reaction was stopped by adding 50 μl of 10% H₂SO₄ to each well of the plate. Optical density values were measured at a wavelength of 450 using 540 nm wavelength correction by means of a plate reader.

[9] = molecular target: T3, Human AXL; assay: as above
Procedure: as §4

Row | binding result [1] | Kd [2] [nM] | Kd [3] [nM] | Kd [4] [nM] | binding result [5] | binding result [6] | binding result [7] | EC50 (read off the curve) [8] [ng/mL] | EC50 (read off the curve) [9] [ng/mL] | Binder
1 | no binding | 0.0528 | 240 | 0.043 | no binding (tested: 1 µg/ml) | binds | binds |  |  | anti-AXL antibody 01_004 (antibody, human IgG1, kappa, Full-length bivalent IgG1, kappa light chain; the two C-terminal residues GK of the heavy chain are deleted; Made in CHO-K1-S cells in medium with deoxy-2-fluoro-L-fucose; also called candidate 01_004) heavy: QVQLVQSGGGVVQPGRSLRLSCAASGFSFSFFGIHWIRQAPGKGLEWVAFTSRDGNDKYYADSVKGRFTISKDNSKNTVYLQMNSLRAEDTAVYYCGRGNLAFDIWGEGTLVTVSS[human IgG1 constant region omitted here] light: DIVMTQSPDSLTASAGERATINCKSSQSVLLSANQKNYLAWYQQKPGQSPRLLIYWASTRESGVPDRFSGSGSGTDFTLTISNLQPEDAAVYYCHQGYTLPWTFGSGTKVEIKRTVAAPSVFIFPPSDEQLKSGTASVVCLLNNFYPREAKVQWKVDNALQSGNSQESVTEQDSKDSTYSLSSTLTLSKADYEKHKVYACEVTHQGLSSPVTKSFNRGEC
2 |  |  |  |  | no binding (tested: 1 µg/ml) | binds | binds | ~8 | ~8 | anti-AXL antibody 01_004_2 (antibody, human IgG1, kappa, The Fc carries S239D and I332E (EU numbering), and the C-terminal GK is deleted) heavy: QVQLVQSGGGVVQPGRSLRLSCAASGFSFSFFGIHWIRQAPGKGLEWVAFTSRDGNDKYYADSVKGRFTISKDNSKNTVYLQMNSLRAEDTAVYYCGRGNLAFDIWGEGTLVTVSSASTKGPSVFPLAPSSKSTSGGTAALGCLVKDYFPEPVTVSWNSGALTSGVHTFPAVLQSSGLYSLSSVVTVPSSSLGTQTYICNVNHKPSNTKVDKRV[human IgG1 Fc with changes omitted here] light: DIVMTQSPDSLTASAGERATINCKSSQSVLLSANQKNYLAWYQQKPGQSPRLLIYWASTRESGVPDRFSGSGSGTDFTLTISNLQPEDAAVYYCHQGYTLPWTFGSGTKVEIKRTVAAPSVFIFPPSDEQLKSGTASVVCLLNNFYPREAKVQWKVDNALQSGNSQESVTEQDSKDSTYSLSSTLTLSKADYEKHKVYACEVTHQGLSSPVTKSFNRGEC
